Over roughly 33,000 sequences, “E-score (-0.5 to 0.5)” has its median near -0.032; the highest 2% begin near 0.36. This is one part of the list.
target: T1, Sko1 (UniProt Q02100); experiment: PBM E-score (8-mer binding enrichment) (E-score (-0.5 to 0.5)); higher = stronger / more preferred TF binding; most listed sequences are background and not binding sites; conditions: protein concentration: 200 nM; construct: GST-full length
T1 sequence: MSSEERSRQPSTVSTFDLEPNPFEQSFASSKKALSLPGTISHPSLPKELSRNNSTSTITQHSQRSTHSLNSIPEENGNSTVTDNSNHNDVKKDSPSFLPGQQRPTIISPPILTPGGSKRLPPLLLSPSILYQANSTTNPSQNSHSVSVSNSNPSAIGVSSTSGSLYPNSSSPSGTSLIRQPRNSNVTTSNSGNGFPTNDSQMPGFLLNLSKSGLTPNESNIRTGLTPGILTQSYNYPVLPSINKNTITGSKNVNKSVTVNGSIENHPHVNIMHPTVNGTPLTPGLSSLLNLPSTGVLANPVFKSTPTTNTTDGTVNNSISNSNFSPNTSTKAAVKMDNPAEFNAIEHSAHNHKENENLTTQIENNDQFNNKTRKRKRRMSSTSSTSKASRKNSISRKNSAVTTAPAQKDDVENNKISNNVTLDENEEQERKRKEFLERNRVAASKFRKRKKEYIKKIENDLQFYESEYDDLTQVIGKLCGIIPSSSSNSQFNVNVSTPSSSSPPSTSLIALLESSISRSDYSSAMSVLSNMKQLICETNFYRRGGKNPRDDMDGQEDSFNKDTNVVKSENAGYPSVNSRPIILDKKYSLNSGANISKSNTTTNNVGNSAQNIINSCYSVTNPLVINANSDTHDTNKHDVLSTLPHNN
Method in brief: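 Detection of bound protein used fluorescent anti-GST, with scans normalised by masliner. The proteins were GST-tagged yeast transcription factors applied at about 100-200 nM to universal all-10-mer Agilent arrays made double-stranded by primer extension. Each ungapped eight-base word, pooled with its reverse complement, was scored with an E-score from the Universal PBM Analysis Suite.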

Sequence | PBM E-score
CATATAAA | 0.224
TCTGAAAA | -0.0416
ATGCAAAA | 0.116
GAGCCACC | -0.276
CCTCGAAC | -0.21
CTCTCGGA | -0.0819
CATTATGC | 0.147
GGGACACA | -0.17
CCCATATA | -0.108
AGTGAAAC | 0.0257
CCCATCCG | -0.166
CATATGAC | 0.404
ATATTCTC | 0.189
GAGTTACA | 0.0628
AGTTCACG | 0.16
CCTGGCGC | -0.133
CCGAGAAG | -0.268
CCGACAAA | -0.00364
CGCTTCGC | 0.0438
AAGTTCAC | 0.0404
CAACTCCC | -0.212
CGGTGAGC | -0.267
ATAGTGTC | -0.113
AACCGAAC | -0.155
CCGCTCGA | -0.161

Sequence | PBM E-score
CGCAAGTA | 0.243
CCTGTCTA | -0.174
AATGGACA | 0.118
TGTTATAA | 0.288
GCGGAGAA | -0.121
ATTCACGG | 0.095
GTTAAGAA | 0.0211
AGCTAGTG | -0.00092
CCTCGTGA | 0.0827
CCCTGTAC | -0.178
AACCCAAT | -0.105
CAACCCAC | 0.011
AACACTTC | 0.134
ATCGGCAC | 0.0815
CTATGGGC | -0.157
ACCACCCT | -0.141
GCCCGGGA | -0.357
CCCCGCGC | -0.254
CACGTATG | 0.426
CGGAATCA | 0.15
AAATGGAG | 0.0295
GGCCTTCA | -0.206
ACACGGGA | -0.135
CAATTTGG | 0.0415
AACCGACA | 0.0261

Sequence | PBM E-score
CGTACCGC | 0.265
CTCCCACA | -0.278
GCTTGTCA | 0.00095
AGCCTACC | -0.29
AATATACG | 0.359
CGTGTCGA | 0.106
GCAATAAA | 0.18
CATAACTC | -0.106
CAGGCAAC | -0.0389
AAGTCTAC | -0.0388
CCGCACTC | -0.14
ATAAATTC | 0.128
AACAAGGT | 0.0535
TACTCCCA | 0.0397
CTGGTCAC | -0.141
CAGGCTAC | -0.204
CGCATATC | 0.188
GCCCCAGA | -0.199
CATGATCG | 0.0624
CCACACCC | -0.158
CAAAGCCC | -0.131
AGGAGTTG | 0.0436
ACGTGGAC | 0.33
ACCGGACA | -0.26
CGGCTAGA | -0.213

Sequence | PBM E-score
AAGCATAT | 0.173
AACCTTCA | -0.00061
AAGATACT | -0.0387
AATGTGGC | -0.0144
GCGAGCGA | -0.0692
ACCCTCAG | -0.21
ATCGCATG | 0.0067
ATAATGTG | 0.0598
CGTATAAG | 0.211
ATCTGACG | 0.345
AATAGATT | 0.0542
CACCCTAG | 0.0133
CGATTAAG | 0.0497
ACGACAGC | 0.225
CTTAGTAC | 0.00743
AGAGGTGA | -0.0048
ATCCAGAC | -0.117
GCACCAAA | -0.0247
GAAAACAC | 0.0759
AGTTAATC | 0.0573
AGTCAACG | 0.0691
ATGGAACG | 0.0532
AGTTGCGG | -0.097
ACAGTTAA | 0.00167
ACGCCCTA | -0.0906

Sequence | PBM E-score
AGCCGTGA | -0.0249
GTTAATCA | 0.272
CAACGAAA | 0.249
ACGGGAGG | -0.244
ATTAGGAC | -0.11
TCTTACAA | -0.0235
CGGCCCTA | -0.224
GCACCAGC | -0.168
GCCGCTCA | -0.171
GTAAACTA | 0.267
GTGTTCCA | -0.165
CCAAGTTC | -0.223
GTCACCTA | 0.177
CTGTATAC | 0.0913
GTCAGTCA | 0.228
ACGATTGC | 0.197
ACTTAATC | 0.0499
GGCATCAC | 0.0833
GGTATCAC | -0.0377
ACAGATAC | 0.167
GTACAGCA | -0.0622
ATACACAT | 0.132
AGCCTAGG | -0.355
AATTCGGT | 0.187
ACCTTAAA | -0.0637

Sequence | PBM E-score
AGGTTTTC | 0.145
GAATAATA | 0.133
ACAAGGAT | -0.0939
GACGGTTA | -0.101
CTGGTGAA | -0.226
CTACGTAC | 0.449
ACGGAACC | 0.1
CATTATCG | 0.0219
ATCGGTCA | -0.195
ATAAAAAG | 0.112
GGGAATAA | 0.0389
AAAGCGAC | 0.00752
CCTATACA | -0.077
CACGGTGC | -0.215
CCATCGCC | -0.222
ACGACCCG | -0.161
ACGGGGGA | -0.104
GGATTTGA | 0.117
CGTCCCCA | -0.197
CCGCTATC | -0.23
CTCTGCAC | -0.274
AAAGCACT | -0.165
AATACGCC | 0.198
GCTGGCCC | -0.341
CTTTACAC | 0.219

Sequence | PBM E-score
AAGCGTCC | -0.0948
CAGCAGAG | -0.366
AGATATGC | 0.0741
AAAAGTCA | -0.00301
CGCTAAAG | 0.0188
AAGGTACA | -0.0469
ACTTGTGC | -0.216
CAAAGAGA | -0.139
AAATCCTC | -0.169
ATAACTCC | -0.213
TCGTTGAA | 0.162
CATATACA | 0.282
CTAGGTAC | -0.0343
GGATGCCC | -0.326
ACCGAGCT | -0.276
CATCCCAG | -0.258
ATGGTCAA | 0.0955
CATAGTGA | 0.0421
CGCAGACA | -0.0945
ATATTCCA | 0.169
CTGCACCC | -0.248
CTATTTTC | 0.0487

Reference: the supplement of paper PMC3334620
